Measurements published in PubChem BioAssay (NCI).
Where a structure was tested more than once in an assay, its records may differ in their call.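 Interpretation: 100, growth as untreated; towards 0, rising growth inhibition; 0, no net growth; 0 to -100, cell death. Compounds scoring below 10 were considered active.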 A number of entries come with more than one value. Only these are listed. There may be further records. These are repeated runs of one drug, at its own concentration, as given; one value stands for one run. Marks such as (2×) say how often a value occurs here.

Key:
OVCAR-3 ovarian = experiment: NCI-60 one-dose screen, 48 h (100 = growth as untreated, 0 = no growth, -100 = all killed); details: 2.5 mM
HS 578T breast = experiment: as above; details: 2.5 mM

Compound: O=c1[nH]cc(F)c(=O)[nH]1
- growth (OVCAR-3 ovarian; runs of 1992): active: -13.1, -21.5 (2×), -15.7 (3×), -10.7, -29.9, -19.8, -6.53, -40.7, -20.6, -21.2, -13.5 (2×), 1.16, -26 (2×), -3.82, -14.9, -38.4, -35.1, 3.68, -20.8, -9.69, -18.5, -4.33, 5.9, -27.7, -35.5, -3.24, 3.16, -34.4, -38.1, -21.3, -36.2, -21.7 (2×), 2.7, -4.94, 1.87, -3.07, -10.8, -24.9, -38.2 (2×), -23.9, -32.1 (2×), 0.524, -45.1, -16.9 (3×), -1.28, -29, -20.2, -19.5 (2×), 8.05, -18.1 (2×), -17.1, -43.7, -18.9, -12.4, -11.5, -6.2, 1.05, 0.742, -44, -40, -14.8 (2×), -36.1, -7.41, -38.9, -43.4, -27, 1.86, -32, 0.761, -28.5, -30.2, -12.9, -36.7, -40.8, -48.5, -31.5, -35, -28.8, -37.3, -9.15, 7.27, -4.96, -39.2, -18.2, -37.7, -14, -34.9, -47.7, -29.8, -5.35% and inactive: 32.6, 10.4, 12.7 (2×), 24.5, 15.5, 16.9, 30.5, 12.9, 20.7, 14.7, 10.3, 13.7, 11.7, 17.2, 22.9%
- growth (OVCAR-3 ovarian; runs of 1993): active: -6.53, 9.79, -17.1, -10, -49.9, -29.2, 6.69, -26, 9.37, -34.5, -37.1, 3.4, -54.4, -30.2, -38, -4.95, -45.9, -31.2, -42.4, 0.764, -29.7, -37.8, -40.8, -19.7, -46.1, -9.86, -37.4, 5.16, -10.6, -46, 3.5, -36.5, -52.7% and inactive: 20.1, 16.1, 37.3, 30.8, 10.4, 10.6, 125, 91.4, 32.2, 18.7, 27.8, 17.6%
- growth (OVCAR-3 ovarian; runs of 1994): inactive: 10.8, 19.8, 46, 32, 13.9, 10.7, 19.9% and active: -0.879, -21.7, -9.35, -38.4, -35.6, -12.9, 1.83, -32.1, -29.4, 4.41, -17.8, -34.7, -43.3, 9.78, -94.4, -5.73, -32, 1.3, -68.7, -16.1, 6.29, 0.419, -0.885, -2.95, -28.9, -5.97%
- growth (OVCAR-3 ovarian; runs of 1995): active: 4.34, -15.5, -0.285, -18.2, -16.6, -13.4, -28.8, 8.69, -12.9, -30.3, -2.44, 1.87, -3.07, -1.67, 8.06, 7.98, -17, -2.4, 4.5, -22.1, -7.36, 6.95, -15.1, 0.708, -47.2, -22.2, -49, -8.49, -35, -11.7% and inactive: 38, 18.2, 46.5, 26.3, 12.3, 21.8%
- growth (OVCAR-3 ovarian; runs of 1996): inactive: 13.1, 19.8, 14.7, 25.4, 16.5, 36, 17.3, 13.8, 36.2, 12.2, 10.9, 15.2, 36.7, 37.4, 18.5% and active: 3.71, -18, 3.18, -26.5, -15.9, -11.1, -31.4, 5.29, -23, -29.1, -37.8, -23.8, -37.3, -12, -32.4, -15.6 (2×), -79.8, -37.5 (2×), -28.6, -20.1, -16.9, 0.233, 7.81, 8.25, 7.57, 8.05, -22.8, 3.52, -32.3, -28.9, -15.7, 1.49, 0.232, -26, -28.7, -25.9, -23.2, -32.8, -31.2%
- growth (OVCAR-3 ovarian; runs of 1997): active: -12.2, -19.6, -32.5, -23.3, 4.68, -25, -61.4, -31.4 (2×), -8.04, -56.5, -7.09, 8.3, -26.5, 7.89, -34.6, -0.513, -31, -30.8, -3.27, -33.8, -34.7, -19.7, 1.5, -12.6, 0.0783, 3.57, -9.87, -9.97 (2×), -7.81, -7.66, -8.22, 3.19% and inactive: 31.4, 64, 20.8, 18.6, 17.5, 11.3, 21.3, 11.6, 20.7%
- growth (OVCAR-3 ovarian; runs of 1998): active: -1.96, 5.7, -11.4, -0.368, 4.51, 9.34, -33.5, -31.9, 4.73, 7.42, -49.3, 3.86% and inactive: 22.5, 15.9, 23.2, 11.8, 29.2, 34.4, 22.4, 16.5, 32.5, 42.6%
- growth (OVCAR-3 ovarian; runs of 1999): active: -23.3, 3.53, -28.9, -73, 5.32, 1.76, -71, -94.9, -16.2, -23.7, -63.1, -73.8, -100, -44.1% and inactive: 19.5%, 12.8%
- growth (OVCAR-3 ovarian; runs of 2000): active: 8.9, -18.9, -59.8, -66.4%
- growth (HS 578T breast; runs of 1993): inactive: 15.5, 40, 36.4, 19, 19.6, 37, 87.8, 19.2, 28, 41.1, 30.2, 43.4, 57.5, 49.1, 27.8, 43.9, 23.9, 38.4, 33.2, 33.7, 23.7, 28.3, 34.5, 34.9, 68.7, 34.4, 39.5, 85.7, 62.5, 39.1, 31.3, 37.5, 26.3, 56.1, 58.1, 54.5% and active: -9.9, 1.67, 7.87, -2.77, -6.06, 3.65%
- growth (HS 578T breast; runs of 1994): inactive: 45.4, 32.7, 66.5, 45.7, 38.9, 21.2 (2×), 40.1, 26, 75.6, 42.2, 41.3, 68.9, 33.1, 46.8, 17.2, 48.4, 34.2, 38, 40.4, 44.3, 49.4, 31.8, 30.2, 91.1, 27.5, 33.7, 37.6, 47.5% and active: 8.79%, 3.29%, -8.16%
- growth (HS 578T breast; runs of 1995): inactive: 71, 34.2, 31.1, 22.8, 53.9, 17.3, 15.4, 58.2, 38.7, 35.7, 62.7, 70.5, 47.9, 23.7, 40.9, 61.4, 47.5, 33.6, 36.4, 54.2, 21.4, 24.1, 44.3, 43.7, 43.1, 54.7, 27.5, 25.1, 55, 25.3, 72.1, 30, 22.9, 41.1, 60.4, 43.8% and active: -32%
- growth (HS 578T breast; runs of 1996): inactive: 27.5, 53.1, 39.3, 38.9, 43.6 (2×), 35.8, 89.7, 26.9, 30.2, 39 (2×), 23, 46.9, 49.2, 43.2, 24.8, 56.5, 17.9, 16.7, 42.9, 71.4, 44, 34.4, 33.1, 53.9 (2×), 38.2, 29.5, 18.4, 20.9, 41.9 (2×), 17.1, 12.9, 40.3, 44.4, 63.1, 48.4, 56.6, 54.8, 68.6, 49.8, 26.2, 68.8, 34.8, 47.7% and active: -14.5%, -10.5%, -35.9%
- growth (HS 578T breast; runs of 1997): inactive: 17.9, 34.6, 51.4, 45.8, 30, 36.7, 52.4, 17.4, 53.6, 10.1, 14, 33.5, 32.3, 39.4 (2×), 39.8, 23.9, 49.2, 21.1, 52.1, 42.4, 23.1, 49.3, 43.6, 44.6, 24.8, 10.6, 35.1, 36.1, 40.6, 24.1% and active: 9.73, -0.597, -31.1, 4.16, -6.51, -12.1, -21.3%
- growth (HS 578T breast; runs of 1998): inactive: 21.8, 50, 22.6, 42.8, 42.9, 35.9, 45.6, 37.5, 64.6, 65.5, 40.1, 47.4, 69.3% and active: -37.6, -12.8, -11.9, -28.5, -25.5, -17.1%
